Source: PubChem BioAssay AID504706 (National Center for Advancing Translational Sciences (NCATS), 2011)
Screen size: about 320,000 compounds; about 200 (0.062%) were called active. The shares of active, inactive and inconclusive entries below differ from those in the screen. The call rests on the fitted dose curve; in most records, active means well fitted activation curve with a large enough effect; inconclusive means small, poorly fitted or top-dose-only effect; inactive means no such curve, though single readings can be large or run the other way. No potency is given beside an inconclusive call; the fits are too rough.
Potency means the concentration at half of the fitted maximal effect; tags describe the fitted curve by direction and shape.

Test: qHTS assay for re-activators of p53 using a Luc reporter; further: nearly all actives have a fitted effect of over 45% in size
Conditions: H1299 p53-A138V BP100-luciferase reporter, luminescence, 24 h; series mostly up to 92.2 µM
Outline: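 p53-null H1299 cells stably carrying temperature-sensitive p53-A138V and a BP100-luciferase reporter were pinned with compounds (4-point, 1:5 series) and held 24 hrs at 37 deg C. Luminescence was read 10 min after detection reagent.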
With O=C(/C=C/c1ccncc1)c1ccc(NC(=O)c2ccccc2F)cc1 the Potency was “inactive”.
For Fc1cccc(NCCc2c[nH]c3ccccc23)n1, the Potency was inconclusive [activator, full curve, poor fit].
In the case of CNC(=O)c1c(NC(=O)C2=COCCO2)sc2c1CCC(C)C2 (stereo not drawn), the Potency is reported as “inactive”.
In the case of CC(C)NC(=O)c1ccccc1NC(=O)CN(c1ccc2c(c1)OCO2)S(C)(=O)=O, the Potency is reported as inconclusive [activator, single point].
In the case of CCN1CCc2nc(NC(=O)c3ccc4c(c3)OCCO4)sc2C1, the Potency is reported as “inactive”.
In the case of Cc1ccnc(NC(=O)CCC2CCCCC2)c1, the Potency is reported as inconclusive [activator, full curve, poor fit].
In the case of S=C(c1ccc(-c2cccc(Cl)c2)o1)N1CCOCC1, the Potency is reported as inconclusive [activator, partial curve, poor fit].
With O=C(Nc1nc(-c2ccccn2)cs1)c1cc2ccccc2o1 the Potency was inconclusive [activator, partial curve, poor fit].
In the case of O=C(O)c1ccccc1C(=O)Nc1ccc(-c2csc(-c3ccccc3)n2)cc1, the Potency is reported as inconclusive [activator, full curve, poor fit].
With Cc1cc(NC(=O)c2cc(-c3cccc(OCC(C)C)c3)nc3ccccc23)no1 the Potency was inconclusive [activator, single point].
With CCN(CC)S(=O)(=O)c1ccc(N/N=C(\C)c2ccc(OC)cc2O)nc1 the Potency was inconclusive [activator, partial curve, poor fit].
With COc1ccc(O)c(/C=N/NC(=S)Nc2cccc(S(=O)(=O)N(C)C)c2)c1 the Potency was inconclusive [activator, partial curve, poor fit].
In the case of CCC1(C)Cc2ccccc2-c2nc(NN)[nH]c(=O)c21 (stereo not drawn), the Potency is reported as “inactive”.
For Cn1c(CNC(=O)C(Cc2ccccc2)NC(=O)c2ccccc2)cc(=O)n(C)c1=O (stereo not drawn), the Potency was “inactive”.
In the case of CC(=O)c1ccc(NC(=O)c2cc(C)nc3ccccc23)cc1, the Potency is reported as inconclusive [activator, single point].
For COC(=O)c1[nH]c2ccc(C)cc2c1NC(=O)CN1CCCC(C)(C)C1, the Potency was “inactive”.
For COP(=O)(OC)c1nc(-c2cccc3ccccc23)oc1NCCc1ccccc1, the Potency was “inactive”.
In the case of CCN1C(=NCCCOC(C)C)N[C@@H](c2ccccc2)[C@H](C(=O)OC)[C@H]1C, the Potency is reported as “inactive”.
With O=C(C1CC1)N(Cc1ccco1)c1nc(-c2ccccc2)cs1 the Potency was inconclusive [activator, partial curve, poor fit].
In the case of COc1ccc(S(=O)(=O)N/N=C(/C)c2ccco2)cc1, the Potency is reported as inconclusive [activator, full curve, poor fit].
With CCOc1ccccc1NC(=O)c1ccc2c(c1)C(=O)N(C(C)(C)C)C2=O the Potency was inconclusive [activator, single point].
With CCS(=O)(=O)N1CCN(C(=O)CCC2CCCC2)CC1 the Potency was “inactive”.
For Brc1ccc(C2Nc3cccc4cccc(c34)N2)o1, the Potency was “inactive”.
With CC(C)C1S/C(=N/N=C/c2cccs2)NC1=O (stereo not drawn) the Potency was “inactive”.
In the case of COc1cccc(C(=O)Nc2nnc(C(C)C)s2)c1, the Potency is reported as inconclusive [activator, full curve, poor fit].
With COc1ccccc1Nc1nc(-c2sc(NC(=O)c3ccccc3)nc2C)cs1 the Potency was “inactive”.
With COc1ccccc1N(Cc1ccccc1)S(=O)(=O)c1cccc(C(=O)Nc2ccccn2)c1 the Potency was inconclusive [activator, partial curve, poor fit].
With COc1ccc(C2=CC(=O)CC(C)(C)C2)cc1 the Potency was “inactive”.
With CN1C(=O)/C(=C/c2ccccc2F)Sc2ccc(C(=O)N3CCCC3)cc21 the Potency was “inactive”.
For COc1cccc(CNC(=O)COC(=O)CCS(=O)(=O)c2ccc(C)cc2)c1, the Potency was “inactive”.
With O=C1COc2ccc(C(=O)COC(=O)CCc3ccc(S(=O)(=O)N4CCOCC4)cc3)cc2N1 the Potency was inconclusive [activator, full curve, poor fit].
In the case of CCOc1cc(/C=C(\C#N)C(=O)Nc2ccccc2C(=O)O)ccc1OC(=O)c1ccc(C)cc1, the Potency is reported as inconclusive [activator, partial curve, poor fit].
With Cc1nnc(SC2CC(=O)N(c3ccccc3)C2=O)s1 (stereo not drawn) the Potency was “inactive”.
With COc1ccc2cc3cc(C(=O)NCc4ccco4)oc3nc2c1 the Potency was “inactive”.
In the case of COc1ccc(-c2cc(C(=O)N3CCCCC3)c3ccccc3n2)cc1, the Potency is reported as “inactive”.
In the case of COC(=O)c1cc(-c2ccc(OC)cc2F)nc2nc(SC)[nH]c(=O)c12, the Potency is reported as “inactive”.
For CNc1cccc2c1C(=O)c1ccccc1C2=O, the Potency was inconclusive [activator, full curve, poor fit].
In the case of Cc1cc(C(=O)CN2C(=O)NC3(CCCCC3C)C2=O)c(C)n1Cc1cccs1 (stereo not drawn), the Potency is reported as inconclusive [activator, partial curve, poor fit].
With CC(C)c1onc(C(=O)N(C)C2CCCCC2)c1[N+](=O)[O-] the Potency was inconclusive [activator, single point].
With O=C(Nc1c2c(nc3ccccc13)CCCC2)c1ccccc1Cl the Potency was “inactive”.
In the case of Cc1ccccc1NC(=O)CSc1ccc(-c2ccc(-n3cccn3)cc2)nn1, the Potency is reported as “inactive”.
With CNC(=O)c1ccccc1NC(=O)c1cccc(S(=O)(=O)N2CCCCC2)c1 the Potency was “inactive”.
With O=C(NCc1ccco1)c1ccc2nc3sc4c(c3c(=O)n2c1)CCCC4 the Potency was inconclusive [activator, partial curve, poor fit].
For CCC(NC(=O)C1C2C=CC(C2)C1C(=O)O)c1ccc(C)cc1 (stereo not drawn), the Potency was inconclusive [activator, single point].
For CC(C)OC(=O)c1cc2ccccc2[nH]1, the Potency was inconclusive [activator, partial curve, poor fit].
For Cc1nc2cc(N=NC3=C(O)CCCC3=O)ccc2s1, the Potency was inconclusive [activator, partial curve, poor fit].
In the case of CC(=O)N(c1ccccc1)c1nnc(-c2cnc(C)cn2)s1, the Potency is reported as “inactive”.
For COc1ccc(CNCc2ccco2)cc1OCc1ccccc1, the Potency was inconclusive [activator, single point].
